From paper PMC9924070 (Science Translational Medicine, 2021) come the findings set out here.

Usually Kd stands for the concentration at which binding is half-saturated. Higher therefore signals lower affinity.

The target in this assay is T1, humVHH_S56A/LALA-Fc/Gen2 (human, E1D).
T1 construct: also called XVR011
The experiment in a line: SPR. The note with it: both partners purified.

B1: His-tagged recombinant human FcγRIIIa (V176) (receptor)
chain: not shown
B1 had a Kd of 5.66 µM. This counts as single-digit micromolar.
